# This is one part of the list.
# What was measured:
# [1] = tested on: HSkMC (human skeletal muscle cells); experiment: cytotoxicity call (relative viability < 0.9); settings: 10 µM
# [2] = tested on: HepG2; experiment: cytotoxicity call (relative viability < 0.9); settings: 10 µM
# [3] = tested on: S. aureus RN4220; experiment: growth inhibition call (relative growth <= 0.2); settings: 50 µM
Compound,cytotoxicity call [1],cytotoxicity call [2],growth inhibition call [3]
CO[C@H]1CN(C)C(=O)c2cc(NC(=O)Nc3ccccc3F)ccc2OC[C@H](C)N(CCC(F)(F)F)C[C@H]1C,inactive,inactive,inactive
COc1ccc(NC(=O)N(C)C[C@@H]2Oc3c(NC(=O)CCCCCC(=O)Nc4ccccc4N)cccc3C(=O)N([C@@H](C)CO)C[C@H]2C)cc1,inactive,inactive,inactive
Cn1cnc(S(=O)(=O)N2C[C@H](O)COC[C@H]3O[C@@H](CC(=O)NC4Cc5ccccc5C4)CC[C@@H]32)c1,inactive,inactive,inactive
C[C@@H]1CCCCO[C@@H](CN(C)Cc2ccc(C(F)(F)F)cc2)[C@@H](C)CN([C@H](C)CO)C(=O)c2cc(NC(=O)Cc3ccccc3)ccc2O1,inactive,active,inactive
Cc1ccc(S(=O)(=O)N2C[C@@H](O)COC[C@H]3O[C@H](CC(=O)N[C@@H]4CCN(Cc5ccccc5)C4)CC[C@@H]32)cc1,inactive,inactive,inactive
Nc1cnn([C@H]2O[C@@H](COC(=O)c3ccccc3)[C@@H](O)[C@@H]2O)c(=O)n1,inactive,inactive,inactive
COc1ccc([C@@H](O)[C@@H](CCO)OC)cc1O,inactive,inactive,inactive
CCN(CCO)CCCC(C)Nc1ccnc2cc(Cl)ccc12.O=S(=O)(O)O (configuration not stated),inactive,active,inactive
C[C@@H]1CN([C@@H](C)CO)C(=O)Cc2cc(NC(=O)Cc3cn(C)c4ccccc34)ccc2O[C@H]1CN(C)S(=O)(=O)c1cn(C)cn1,inactive,inactive,inactive
OCC1CCNCC1,inactive,inactive,inactive
CC1COc2c(N3CCN(C)CC3)c(F)cc3c(=O)c(C(=O)O)cn1c23 (configuration not stated),inactive,inactive,active
Cc1cc(Oc2ccc3nc(COc4ccc(C[C@H]5SC(=O)NC5=O)cc4)n(C)c3c2)cc(C)c1N,inactive,inactive,inactive
C[C@@H]1CCCCO[C@@H](CN(C)S(=O)(=O)c2cccs2)[C@H](C)CN([C@H](C)CO)C(=O)c2cc(NC(=O)c3ccccc3)ccc2O1,inactive,active,inactive
C[C@@H]1CCCCO[C@@H](CN(C)Cc2ccc3c(c2)OCO3)[C@@H](C)CN([C@H](C)CO)C(=O)c2cc(NS(=O)(=O)c3ccc(F)cc3)ccc2O1,inactive,active,inactive
CC(=O)N[C@@H](CS)C(=O)O,inactive,inactive,inactive
NCC[C@H]1CC[C@@H](NC(=O)NC2CCCCC2)[C@H](CO)O1,inactive,inactive,inactive
C[C@@H]1CN([C@H](C)CO)C(=O)Cc2cc(NS(=O)(=O)c3ccc(F)cc3)ccc2O[C@@H]1CN(C)Cc1ccncc1,inactive,inactive,inactive
CC(=O)N(C)C[C@H]1Oc2ncc(C#CC(C)(C)O)cc2C(=O)N([C@H](C)CO)C[C@@H]1C,inactive,inactive,inactive
NC(=O)c1nc2c(s1)CCNCC2,inactive,inactive,inactive
C[C@H](CO)N1C[C@H](C)[C@@H](CN(C)S(=O)(=O)c2ccc(Cl)cc2)Oc2ccc(NC(=O)C3CC3)cc2C1=O,inactive,inactive,inactive
C[C@@H]1CCCCO[C@H](CN(C)Cc2ccncc2)[C@H](C)CN([C@H](C)CO)C(=O)c2cc(NS(C)(=O)=O)ccc2O1,inactive,inactive,inactive
C[C@H](CO)N1C[C@H](C)[C@@H](CN(C)S(=O)(=O)c2cn(C)cn2)Oc2ccc(NC(=O)CCCCCC(=O)Nc3ccccc3N)cc2CC1=O,inactive,inactive,inactive
O=C(CN1CCOCC1)N[C@H]1CC[C@@H](CCn2cc(C3CCCC3)nn2)O[C@H]1CO,inactive,inactive,inactive
CC(=O)OC[C@H](N)C(=O)O,inactive,inactive,inactive
C[C@@H]1CCCCO[C@H](CN(C)C(=O)Cc2ccccc2)[C@H](C)CN([C@@H](C)CO)C(=O)c2cc(NC(=O)Nc3ccccc3)ccc2O1,inactive,inactive,inactive
CN(C)Cc1cn(CC[C@@H]2CC[C@H](NC(=O)Cc3cccnc3)[C@@H](CO)O2)nn1,inactive,inactive,inactive
COc1cncc(O)c1,inactive,inactive,inactive
O=C(NCc1nc2ccccc2[nH]1)C1=C[C@@H](c2ccc(Br)cc2)C[C@@H](OCc2ccc(CO)cc2)O1,inactive,active,inactive
COCC(=O)N(C)C[C@@H]1Oc2cc(C#Cc3cccnc3)ccc2S(=O)(=O)N([C@@H](C)CO)C[C@@H]1C,inactive,inactive,inactive
